Measured values from PubChem BioAssay AID485297 (National Center for Advancing Translational Sciences (NCATS), 2010).
In all, about 320,000 compounds went through this assay and about 9,100 (2.8%) were called active. The shares of active, inactive and inconclusive entries below differ from those in the screen. Calls come from the whole dose curve; as a rule, active = well fitted activation curve with a large enough effect; inconclusive = small, poorly fitted or top-dose-only effect; inactive = no such curve, though single readings can be large or run the other way. Potencies beside an inconclusive call are fits to weak or partial responses and may not hold up.

Test: qHTS Assay for Rab9 Promoter Activators; note: nearly all actives have a fitted effect of over 60% in size; for activation, negative = inhibition: % of control where 0% means no effect
Settings: Huh7 Rab9 promoter-luciferase reporter, luminescence, 24 h; series mostly up to 9.22 µM; activation, negative = inhibition: at the top concentration
How it was run: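 Luminescence read-out: Huh7 cells stably expressing Rab9-luciferase, treated 24 h with compound at 37 °C, then lysed with luciferase reagent for 10 min at ambient before reading.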
Potency is the fitted concentration of half-maximal effect; tags give direction and shape of the fitted curve.

Potency, inconclusive:
COc1ccccc1Nc1ncc(C(C)=O)c(C)n1 3.98 µM [activator, single point], COc1cccc(Nc2ncnc3ccccc23)c1 5.62 µM [activator, single point], COC1=C(Nc2ccc(OC)cc2)C(=O)c2ccccc2C1=O 2.82 µM [activator, partial curve], O=C(c1ccc(-c2ccccc2Cl)o1)N1CCC1 3.55 µM [activator, single point], COc1ccc(OC)c(C(=O)c2ccccn2)c1 1.26 µM [activator, single point], O=C(OCc1ccc(Cl)c(Cl)c1)c1ccc[nH]1 3.55 µM [activator, partial curve], CCCCOc1ncnc2c1[nH]c1ccc(C)cc12 0.501 µM [activator, partial curve], Cc1ccc(C(=O)Cn2c(=N)n(N)c3ccccc32)cc1 3.55 µM [activator, single point], Cn1cc(/C=C(\C#N)C(=O)Nc2ccccc2O)c2ccccc21 6.31 µM [activator, single point], O=C(NCc1cccnc1)Nc1ccc(Cl)c(Cl)c1 3.55 µM [activator, single point], COC(=O)c1ccn(Cc2ccccc2Cl)n1 3.16 µM [activator, partial curve], COc1ccc(C(=O)Nc2ccc(N3CCCCC3)cc2)cc1Br 3.16 µM [activator, single point], COc1ccc(CNc2ccc(Br)cc2)cc1 6.31 µM [activator, single point], CCN(CC)C(=O)COc1ccc(/C(C)=N/NC(=O)c2ccccc2O)cc1 6.31 µM [activator, single point], C/C(=N\Nc1ccc(Cl)c(C(=O)O)c1)c1cccs1 5.01 µM [activator, single point], CCOC(=O)C1(Cc2ccccc2Cl)CCN(C(=O)c2cc(C)on2)CC1 2.82 µM [activator, partial curve], O=C(Nc1ccc(Br)cc1)C1OCCc2ccccc21 (stereo not drawn) 3.55 µM [activator, single point], COc1ccc(C2C(C(=O)c3cccs3)=C(O)C(=O)N2Cc2cccnc2)cc1OC (stereo not drawn) 2.82 µM [activator, partial curve], COCc1nnc(NC(=O)c2sc3ccccc3c2Cl)s1 1.41 µM [activator, partial curve], COc1cccc2c(=O)c3ccccc3oc12 3.16 µM [activator, single point], Cc1cccc2c1cnn2C(=O)Nc1ccccc1Br 0.447 µM [activator, partial curve], COc1cc2c(cc1NC(=O)c1ccco1)CCCC2 3.55 µM [activator, single point], CCCOc1ccc(CSc2nc3ccccc3[nH]2)cc1 0.794 µM [activator, partial curve], c1ccc2c(c1)CCN(c1nc3cc4c(cc3s1)OCCO4)C2 0.0891 µM [activator, full curve, poor fit], c1ccc2sc(N3CCOCC3)nc2c1 3.16 µM [activator, partial curve], CC1CCN(C(=O)COC(=O)c2cc(Cl)c3c(c2)OCO3)CC1 3.55 µM [activator, partial curve], C/C(=C\c1ccco1)C1Nc2cccc3cccc(c23)N1 3.16 µM [activator, partial curve], CNC(=O)c1ccc(-c2cc(C(F)(F)F)nn2C)s1 3.55 µM [activator, partial curve], CC(=O)Nc1nc(-c2ccc([N+](=O)[O-])cc2)cs1 6.31 µM [activator, partial curve], O=C(CSc1ncc(-c2ccc(F)cc2)[nH]1)N1CCCCC1 3.98 µM [activator, single point], COc1ccc2[nH]c(C(=O)NCCc3ccccc3)cc2c1 5.62 µM [activator, single point], Cc1ccc(NC(=O)C(=O)C2C(=O)Nc3ccccc32)cc1 (stereo not drawn) 6.31 µM [activator, single point], COc1cccc(-c2nnc3sc(-c4ccccc4)nn23)c1 5.62 µM [activator, single point], O=C(Cc1ccccc1)NCc1ccc(F)cc1 2.51 µM [activator, partial curve], COc1ccccc1CN1CC(C(=O)N2CCCCO2)CCC1=O (stereo not drawn) 3.55 µM [activator, single point], COC(=O)C1CCN(c2cc(=O)n(-c3ccccc3Cl)c(=O)[nH]2)CC1 1.26 µM [activator, single point], O=[N+]([O-])c1ccccc1-c1cc(-c2ccccc2O)n[nH]1 3.98 µM [activator, single point], CC(C)c1nc2cc(C(=O)N(C)Cc3ccc(F)cc3)ccc2o1 2 µM [activator, partial curve], CCCCc1nc2cc(C(=O)N3CCCC(OCCC)C3)ccc2o1 (stereo not drawn) 3.98 µM [activator, single point], O=[N+]([O-])c1ccc2c(c1)nc1n2CCN(c2ccccc2)C1 5.62 µM [activator, single point], Nc1c(-c2ccccc2)cnn1-c1cccc([N+](=O)[O-])c1 3.55 µM [activator, partial curve], Cc1cc(C)cc(NC(=O)Nc2ccc3c(c2)CCC3)c1 1.58 µM [activator, partial curve], CN(C)/C=N/C(=S)Nc1ccc(Cl)cc1 1.12 µM [activator, single point], COc1ccc(CCN(C)C(=O)CSc2nnnn2C)cc1OC 5.62 µM [activator, single point], O=C(Nc1ccc(NC(=O)c2ccccc2Cl)nc1)c1ccco1 6.31 µM [activator, single point], COc1ccc(C(=O)Nc2ccc3c(c2)OCCO3)cc1[N+](=O)[O-] 3.16 µM [activator, single point], CC(Sc1nnc(NCc2ccccc2)s1)C(=O)Nc1ccc2c(c1)C(=O)c1ccccc1C2=O (stereo not drawn) 5.62 µM [activator, single point]

Potency, active:
O=C(CSc1nnc(-c2ccco2)o1)c1ccc[nH]1 2.24 µM, COc1ccccc1NC(=O)c1cc2ccccc2o/c1=N\O 3.98 µM, O=C(Nc1ccc(Br)cc1)c1ccc2c(c1)OCO2 0.708 µM, COc1ccc2oc(C(=O)Nc3nc(C)cs3)c(C)c2c1 5.62 µM, O=c1c2ccccc2nc2c3ccccc3cnn12 2.24 µM, O=S(=O)(Cc1noc(-c2ccccc2Cl)n1)c1ccccn1 1.41 µM, CCOC(=O)c1cn2nc(N3CCCC3)ccc2n1 0.316 µM, Cc1ccc(NC(=O)Nc2ccc3oc(C)nc3c2)cc1 1.58 µM, COCc1nc(-c2ccc(-c3ccccc3)nc2OC)no1 3.98 µM, Cc1ccc(/C=N/NC(=O)c2ccoc2C)s1 3.16 µM, Cc1cccc(C(=O)Nc2sc(C)c(-c3ccccc3)c2C#N)c1 1.58 µM

activation, negative = inhibition, inactive:
O=C(COC(=O)/C=C/c1ccc(Cl)cc1)NC1CCCCCC1 11.2%, O=C(OCc1c(Cl)cccc1Cl)c1cnccn1 0.124%, Cc1cnc(C(=O)OCc2ccc(Br)cc2)cn1 0.606%, O=C(NCC1CCCO1)c1ccc(COc2ccccc2Br)cc1 (stereo not drawn) -6.46%, CCc1ccc2[nH]c(=O)c(CN(Cc3ccccc3)C(=O)Nc3ccccc3OC)cc2c1 -5.03%, Cc1ccc(Nc2nc(CSc3nnc(-c4cccnc4)n3-c3ccccc3C)cs2)cc1 1.62%, Cc1nc(SCCOc2ccccc2F)[nH]c(=O)c1Cc1ccccc1 -3.87%, O=C(CN1C(=O)c2ccc(Br)cc2C1=O)NCC1CCCO1 (stereo not drawn) -0.69%, Cc1c(NC(=O)/C=C/c2ccc(S(=O)(=O)N3CCOCC3)cc2)c(=O)n(-c2ccccc2)n1C 3.15%, COc1ccc2c(c1)CCc1c(C(=O)Nc3c(C)nn(Cc4ccccc4)c3C)noc1-2 -12.5%, CC1CCCC(C)N1c1nnc(NC(=O)c2cc(-c3ccc(Br)cc3)on2)s1 (stereo not drawn) -0.363%, CCCCCn1c(N2CCN(c3cccc(Cl)c3)CC2)nc2c1c(=O)[nH]c(=O)n2C -1.1%, OCC1OC(n2cnc3ccccc32)CC1O (stereo not drawn) -4.81%, O=C(NCCO)c1nc2ccccc2s1 0.549%, O=C(CCn1c(=S)[nH]c2cc3c(cc2c1=O)OCO3)NCc1ccccc1Cl -0.805%, COc1ccc(OCC(=O)N/N=C(\C)c2ccc(OC)cc2)cc1 0.918%, CCOC(=O)c1nn(-c2ccc([N+](=O)[O-])cc2)cc1O -4.83%, CN(Cc1cccc(F)c1)C(=O)CNS(=O)(=O)c1ccc2ccccc2c1 -0.0741%, CCOC(=O)c1ccc(NC(=S)NC(=O)COc2ccccc2)cc1 -10.2%, CC1CN(S(=O)(=O)c2cccc(C(=O)Nc3ccc4c(c3)CCC4)c2)CC(C)O1 (stereo not drawn) -12.7%
